The source of these data is the BET-seq Pho4 binding data (Le et al. 2018).

The other results are listed elsewhere or left out. These are noisy estimates, calculated here from bound and input reads.

This test addresses T1, Pho4 (S. cerevisiae) (UniProt P07270).
T1 sequence: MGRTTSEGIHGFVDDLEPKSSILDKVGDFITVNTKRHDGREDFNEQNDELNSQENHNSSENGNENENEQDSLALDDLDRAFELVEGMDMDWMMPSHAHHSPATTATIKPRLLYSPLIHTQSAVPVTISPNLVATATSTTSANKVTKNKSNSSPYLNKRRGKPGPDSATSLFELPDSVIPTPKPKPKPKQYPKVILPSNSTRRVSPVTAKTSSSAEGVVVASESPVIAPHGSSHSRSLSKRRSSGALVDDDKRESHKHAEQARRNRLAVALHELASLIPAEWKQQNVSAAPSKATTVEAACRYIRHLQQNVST
As to the kind of experiment: relative binding free energy (BET-seq); higher = weaker binding. The conditions noted are these: reference: library average.
For TTTAACACGTGGCCGG, the “relative binding free energy” value was found to be 0.02 kcal/mol. For the sequence TAGAACACGTGGCGGG, the “relative binding free energy” value was -0.18 kcal/mol. On to TAAGTCACGTGGCGTT, for which the “relative binding free energy” value worked out at 0.13 kcal/mol.

For GGCTACACGTGTTGTA, the “relative binding free energy” value stood at 0.27 kcal/mol. Take TTAAGCACGTGAGTTG: the “relative binding free energy” value is 0.19 kcal/mol. To CTTAGCACGTGGGTGG belongs -0.17 kcal/mol; to GATTGCACGTGTGGGA, 0.21 kcal/mol; to TGGTTCACGTGATCGC, 0.53 kcal/mol. To TCCGTCACGTGAGGTT belongs 0.28 kcal/mol.

Consider CGGGACACGTGTGCGT, for which the “relative binding free energy” value was -0.12 kcal/mol. Turning to TGGTTCACGTGTTTGA, the “relative binding free energy” value is 0.23 kcal/mol. On to CGCTGCACGTGTGGGG, for which the “relative binding free energy” value amounted to 0.02 kcal/mol. CTTGGCACGTGGCGGA: the “relative binding free energy” value was -0.28 kcal/mol. As for ATTATCACGTGTTATC, the “relative binding free energy” value was 0.19 kcal/mol. ATGAGCACGTGGGGGT: the “relative binding free energy” value was -0.14 kcal/mol.

In the case of TACATCACGTGAGTTG, the “relative binding free energy” value was determined as 0.39 kcal/mol. In the case of GGTACCACGTGTGTGT, the “relative binding free energy” value amounted to 0 kcal/mol. To GTGACCACGTGGGGCG belongs -0.2 kcal/mol. Regarding TTCGCCACGTGTTGTT, the “relative binding free energy” value was -0.14 kcal/mol. On to ATTGACACGTGGGTAG, for which the “relative binding free energy” value is -0.26 kcal/mol. For the sequence GAGTGCACGTGTTACT, the “relative binding free energy” value was found to be 0.12 kcal/mol. Turning to GGAAGCACGTGGCTAG, the “relative binding free energy” value is -0.06 kcal/mol.

Regarding TTTGTCACGTGTTAGC, the “relative binding free energy” value came to 0.09 kcal/mol.

As for TAATTCACGTGTTCAT, the “relative binding free energy” value came to 0.13 kcal/mol. Take CTGTTCACGTGATTTT: the “relative binding free energy” value was found to be 0.35 kcal/mol. With CGTGACACGTGTGTGA, the “relative binding free energy” value was -0.04 kcal/mol.

For AAATGCACGTGTAGTA, the “relative binding free energy” value is -0.01 kcal/mol. On to TTTGGCACGTGGGTTT, for which the “relative binding free energy” value was -0.08 kcal/mol. For the sequence GATTACACGTGCGGTT, the “relative binding free energy” value worked out at 0.15 kcal/mol. TGGTTCACGTGCTGTT: the “relative binding free energy” value came out at 0.2 kcal/mol. As to ATGGTCACGTGCCTTG, the “relative binding free energy” value was -0.02 kcal/mol. For the sequence ATCCGCACGTGGGGGG, the “relative binding free energy” value was -0.38 kcal/mol.

AGGTCCACGTGTGTGT: the “relative binding free energy” value is 0.08 kcal/mol. As for TTCTGCACGTGTGGTG, the figure is 0.06 kcal/mol; as for ATTACCACGTGTAGGG, -0.05 kcal/mol; as for GTCGGCACGTGTGGCA, -0.02 kcal/mol.

With GCTAGCACGTGGTCGG, the “relative binding free energy” value was -0.23 kcal/mol. Consider GTGTTCACGTGTGTTC, for which the “relative binding free energy” value turned out to be 0.38 kcal/mol.

Regarding GTAGGCACGTGTTTCG, the “relative binding free energy” value was -0.14 kcal/mol. CTGTACACGTGGCTGG: the “relative binding free energy” value was -0.06 kcal/mol. TCAATCACGTGGAGTT: the “relative binding free energy” value is 0.15 kcal/mol. With TCTCGCACGTGGTGGG, the “relative binding free energy” value is -0.22 kcal/mol. Turning to CGTCTCACGTGGTAGG, the “relative binding free energy” value worked out at 0.07 kcal/mol. To AGTGGCACGTGTGGTT belongs -0.03 kcal/mol; to CGTTTCACGTGTGGGG, 0.32 kcal/mol. In the case of TGTGACACGTGGTGTA, the “relative binding free energy” value was -0.06 kcal/mol.

As for GTGGTCACGTGAATAT, the “relative binding free energy” value is 0.26 kcal/mol. As to ATGTACACGTGGTGTA, the “relative binding free energy” value is -0.01 kcal/mol.

On to GTTGTCACGTGGCCGG, for which the “relative binding free energy” value was 0.05 kcal/mol. With AGATACACGTGATGTT, the “relative binding free energy” value worked out at 0.15 kcal/mol. With GATTTCACGTGTGAAT, the “relative binding free energy” value worked out at 0.25 kcal/mol. As for AAAGACACGTGGTGTT, the figure is 0.03 kcal/mol. On to TATTCCACGTGTTTTT, for which the “relative binding free energy” value came out at 0.11 kcal/mol. To AGTATCACGTGTCAGT belongs 0.07 kcal/mol. As to TAGGGCACGTGTGCAG, the “relative binding free energy” value is -0.23 kcal/mol. GATTTCACGTGCGTGG: the “relative binding free energy” value is 0.24 kcal/mol. Turning to GGTGTCACGTGGTTTC, the “relative binding free energy” value was found to be 0.11 kcal/mol. For the sequence ATTTCCACGTGTGTGA, the “relative binding free energy” value was 0.13 kcal/mol. Take TGATTCACGTGAGGTC: the “relative binding free energy” value was 0.31 kcal/mol. To GTGTCCACGTGTAGTG belongs 0.1 kcal/mol; to TGCTTCACGTGGAAGT, 0.33 kcal/mol; to GCTGCCACGTGATGTG, 0.24 kcal/mol. Take AGGTGCACGTGTAATT: the “relative binding free energy” value worked out at 0.11 kcal/mol. As for AGTGTCACGTGGTTGA, the “relative binding free energy” value was determined as 0.01 kcal/mol. AGGTGCACGTGGGGAG: the “relative binding free energy” value was -0.21 kcal/mol. Regarding TGATACACGTGGGAAT, the “relative binding free energy” value is -0.05 kcal/mol. As for GGTGACACGTGTTGTA, the figure is 0 kcal/mol.

Turning to TTGCGCACGTGGTGGG, the “relative binding free energy” value was -0.19 kcal/mol. Consider GTCTACACGTGTGCTG, for which the “relative binding free energy” value worked out at 0.27 kcal/mol. As to GAATACACGTGTGGCG, the “relative binding free energy” value was 0.24 kcal/mol. For the sequence GTGAACACGTGTTGCT, the “relative binding free energy” value was 0.04 kcal/mol. For TTGGCCACGTGTGATG, the “relative binding free energy” value is -0.01 kcal/mol. ATTCACACGTGTGAGG: the “relative binding free energy” value came to 0.12 kcal/mol. As for ATTATCACGTGGTAGA, the figure is 0.1 kcal/mol; as for TGCATCACGTGATAGG, 0.08 kcal/mol. In the case of ATAGTCACGTGTATGC, the “relative binding free energy” value was found to be 0.13 kcal/mol. On to TGTTGCACGTGTGCGA, for which the “relative binding free energy” value was 0.12 kcal/mol. With TAATTCACGTGTAAAG, the “relative binding free energy” value came out at 0.36 kcal/mol. Regarding CGGGCCACGTGTTGTT, the “relative binding free energy” value is -0.02 kcal/mol. With CGTCGCACGTGGTGGG, the “relative binding free energy” value is -0.18 kcal/mol. Consider TGGCTCACGTGGTTGC, for which the “relative binding free energy” value was 0.13 kcal/mol. For the sequence TACATCACGTGTTATG, the “relative binding free energy” value amounted to 0.11 kcal/mol. To CTTGCCACGTGGGAGG belongs -0.17 kcal/mol.

As for GTTGTCACGTGCTTTG, the “relative binding free energy” value turned out to be 0.15 kcal/mol.

In the case of ATAAACACGTGGAGGT, the “relative binding free energy” value came out at 0.06 kcal/mol. Regarding TTAGGCACGTGTCCTG, the “relative binding free energy” value was -0.17 kcal/mol.

Consider GTTTACACGTGTTATA, for which the “relative binding free energy” value was found to be 0.18 kcal/mol. With TATAGCACGTGTACGT, the “relative binding free energy” value stood at 0.02 kcal/mol. With TTGATCACGTGGTTGA, the “relative binding free energy” value was determined as 0.13 kcal/mol. Take TGGGGCACGTGCGGAA: the “relative binding free energy” value was -0.19 kcal/mol. TATTTCACGTGTTTGA: the “relative binding free energy” value is 0.22 kcal/mol. Take TATCGCACGTGTACGG: the “relative binding free energy” value is 0.05 kcal/mol.

Consider CGGAGCACGTGTTAGG, for which the “relative binding free energy” value is -0.12 kcal/mol. Consider AGGATCACGTGGGACT, for which the “relative binding free energy” value worked out at 0.15 kcal/mol. For the sequence GGAGTCACGTGGCTTA, the “relative binding free energy” value is 0.21 kcal/mol. On to TGGATCACGTGGAGTC, for which the “relative binding free energy” value stood at 0.23 kcal/mol.

Turning to TTCTTCACGTGAGAGG, the “relative binding free energy” value was found to be 0.61 kcal/mol.

Consider TAACGCACGTGAAGGG, for which the “relative binding free energy” value amounted to 0.21 kcal/mol. Turning to TTGGGCACGTGCTATA, the “relative binding free energy” value is -0.16 kcal/mol. For the sequence GTGCTCACGTGAGAGT, the “relative binding free energy” value came to 0.19 kcal/mol. Take GGGAGCACGTGGCATG: the “relative binding free energy” value was -0.31 kcal/mol. Consider GTAATCACGTGAAGGT, for which the “relative binding free energy” value was 0.32 kcal/mol. For AAAGTCACGTGTAGGG, the “relative binding free energy” value came to 0.07 kcal/mol. Regarding TGGGCCACGTGTTGTA, the “relative binding free energy” value came to 0.01 kcal/mol.

Consider CTTGACACGTGGGTCG, for which the “relative binding free energy” value is -0.05 kcal/mol. In the case of GAGCGCACGTGCTGTG, the “relative binding free energy” value was -0.01 kcal/mol. With CAATTCACGTGGAGTG, the “relative binding free energy” value was found to be 0.26 kcal/mol. As to ATGATCACGTGACGGT, the “relative binding free energy” value stood at 0.33 kcal/mol. To GGAGGCACGTGCGGTC belongs -0.17 kcal/mol; to TGGTGCACGTGCGGAT, 0.01 kcal/mol. Turning to GAGTGCACGTGGTCGA, the “relative binding free energy” value is -0.06 kcal/mol.

On to ATGGGCACGTGTCCGT, for which the “relative binding free energy” value was -0.02 kcal/mol. Regarding AGCGACACGTGGGTGA, the “relative binding free energy” value was -0.2 kcal/mol. For the sequence ATAAGCACGTGAAGTG, the “relative binding free energy” value was 0.18 kcal/mol. With TTTAACACGTGAGGTT, the “relative binding free energy” value was 0.17 kcal/mol.
